Measurements from the supplement of paper PMC4967469.
The IC50 comes from the fitted curve, where viability falls to half of the control; where the fit passes the top or lowest dose, that dose stands as a limit. AUC sums up the same curve from the lowest dose to the 256-fold higher top dose; it is 1 without any effect and falls as sensitivity rises. For some assays here: A top dose marked as inferred comes from the curve model; the source does not state it. For some assays here: Drugs with an entry number were screened twice under separate entries, and the two screens often disagree.

How the values were obtained:
Assay in all cases: Viability of human cancer cell lines after 72 h of drug (GDSC screen)
Pazopanib = compound: Cc1ccc(Nc2nccc(N(C)c3ccc4c(C)n(C)nc4c3)n2)cc1S(N)(=O)=O [Pazopanib]; details: top dose 8 µM
Procedure: (§1)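 Human cancer cell lines in 384-well plates, medium with 10% serum, drug for 72 h over a 256-fold dose range (nine 2-fold or five 4-fold steps up to the top dose). Adherent lines were fixed and stained with the nucleic acid dye Syto60, suspension lines read with resazurin; signal relative to control wells, capped at 0 and 100%. One two-parameter sigmoid per drug and line, fitted in a mixed model over all curves with the slope shared within a line.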

CEP-701 = compound: C[C@]12O[C@H](C[C@]1(O)CO)n1c3ccccc3c3c4c(c5c6ccccc6n2c5c31)CNC4=O [CEP-701]; details: top dose 2 µM; top dose inferred
Procedure: as §1

SB 216763 = compound: Cn1cc(C2=C(c3ccc(Cl)cc3Cl)C(=O)NC2=O)c2ccccc21 [SB 216763]; details: top dose 10 µM; top dose inferred
Procedure: as §1

AR-42 = compound: CC(C)[C@H](C(=O)Nc1ccc(C(=O)NO)cc1)c1ccccc1 [AR-42]; details: top dose 5.12 µM; top dose inferred
Procedure: as §1

GDC0941 = compound: CS(=O)(=O)N1CCN(Cc2cc3nc(-c4cccc5[nH]ncc45)nc(N4CCOCC4)c3s2)CC1 [GDC0941]; details: top dose 4 µM; screen: GDSC drug entry 1527; top dose inferred
Procedure: as §1

Cell Line	AUC (Pazopanib)	IC50 (Pazopanib)	AUC (CEP-701)	IC50 (CEP-701)	AUC (SB 216763)	IC50 (SB 216763)	AUC (AR-42)	IC50 (AR-42)	AUC (GDC0941)	IC50 (GDC0941)
201T (lung adenocarcinoma, adherent)	0.868	> 8 µM	0.705	0.553 µM	0.977	> 10 µM	0.777	2.6 µM		
A427 (non-small cell lung carcinoma, adherent)	0.743	2.5 µM	0.287	0.0311 µM	0.981	> 10 µM	0.865	4.61 µM		
A2058 (melanoma, adherent)	0.927	> 8 µM	0.799	0.842 µM	0.99	> 10 µM	0.882	4.41 µM		
ACHN (kidney, adherent)	0.874	> 8 µM	0.446	0.087 µM	0.983	> 10 µM	0.675	1.06 µM		
AGS (stomach, adherent)	0.989	> 8 µM	0.224	0.0219 µM	0.989	> 10 µM	0.53	0.383 µM		
AU565 (breast, adherent)	0.889	> 8 µM	0.814	1.25 µM	0.965	> 10 µM	0.518	0.359 µM		
CAL-33 (head and neck, adherent)	0.961	> 8 µM	0.653	0.331 µM	0.986	> 10 µM	0.7	1.17 µM		
CAL-51 (breast, adherent)	0.896	7.52 µM	0.624	0.26 µM	0.955	> 10 µM	0.943	> 5.12 µM		
CAL-85-1 (breast, adherent)	0.854	> 8 µM	0.898	> 2 µM	0.965	> 10 µM	0.738	1.89 µM		
CHP-212 (neuroblastoma, adherent)	0.897	> 8 µM	0.482	0.112 µM	0.966	> 10 µM	0.238	0.0601 µM		
CTB-1 (B-cell lymphoma, suspension)	0.926	> 8 µM	0.476	0.105 µM	0.977	> 10 µM			0.829	3.86 µM
Calu-3 (lung adenocarcinoma, adherent)	0.828	6.75 µM	0.881	> 2 µM	0.983	> 10 µM	0.776	2.6 µM		
DU-145 (prostate, adherent)	0.899	> 8 µM	0.838	1.58 µM	0.833	7.5 µM			0.546	0.338 µM
G-292 Clone A141B1 (osteosarcoma, adherent)	0.755	4.38 µM	0.816	> 2 µM	0.893	> 10 µM	0.869	> 5.12 µM		
H290 (mesothelioma, adherent)	0.979	> 8 µM	0.35	0.05 µM	0.989	> 10 µM			0.834	2.31 µM
H2795 (mesothelioma, adherent)	0.911	> 8 µM	0.39	0.0626 µM	0.987	> 10 µM	0.734	1.47 µM		
HCC70 (breast, adherent)	0.937	> 8 µM	0.86	1.62 µM	0.988	> 10 µM	0.641	0.777 µM		
HCC-827 (lung adenocarcinoma, adherent)	0.89	> 8 µM	0.751	0.75 µM	0.96	> 10 µM	0.627	0.759 µM		
HCT-15 (large intestine, adherent)	0.956	> 8 µM	0.421	0.0749 µM	0.987	> 10 µM	0.725	1.46 µM		
HCT-116 (large intestine, adherent)	0.986	> 8 µM	0.514		0.965	> 10 µM	0.396	0.169 µM		
HL-60 (acute myeloid leukaemia, suspension)	0.979	> 8 µM	0.531	0.151 µM	0.99	> 10 µM	0.341	0.122 µM		
Hs-578-T (breast, adherent)	0.889	> 8 µM	0.78	0.876 µM	0.98	> 10 µM	0.815	3.03 µM		
HuP-T3 (pancreas, adherent)	0.956	> 8 µM	0.709	0.563 µM	0.977	> 10 µM	0.626	0.772 µM		
HuP-T4 (pancreas, adherent)	0.973	> 8 µM	0.781	0.879 µM	0.971	> 10 µM	0.56	0.472 µM		
IGR-1 (melanoma, adherent)	0.97	> 8 µM	0.834	1.08 µM	0.989	> 10 µM	0.509	0.338 µM		
JHU-029 (head and neck, adherent)	0.9	> 8 µM	0.733	0.681 µM	0.979	> 10 µM			0.668	0.82 µM
KARPAS-620 (haematopoietic neoplasm, suspension)	0.991	> 8 µM	0.61	0.239 µM	0.991	> 10 µM	0.319	0.108 µM		
KP-1N (pancreas, adherent)	0.904	> 8 µM	0.956	> 2 µM	0.986	> 10 µM			0.733	1.2 µM
KYSE-140 (oesophagus, adherent)	0.971	> 8 µM	0.692	0.467 µM	0.941	> 10 µM	0.983	> 5.12 µM		
KYSE-410 (oesophagus, adherent)	0.961	> 8 µM	0.687	0.435 µM	0.971	> 10 µM	0.755	1.84 µM		
